# Experimental data published in article PMC4336329 (PLoS ONE, 2015).
# About 2,200 (0.71%) of roughly 310,000 compounds showed an effect of 50% or more. The effect is printed as a negative number. This is one part of the list.
# Target: human ether-à-go-go-related gene (hERG) potassium channel (human, UniProt Q12809)
# Experiment: primary screen, population patch clamp on CHO cells stably expressing hERG
# human ether-à-go-go-related gene (hERG) potassium channel, sequence (Q12809 whole entry, looked up): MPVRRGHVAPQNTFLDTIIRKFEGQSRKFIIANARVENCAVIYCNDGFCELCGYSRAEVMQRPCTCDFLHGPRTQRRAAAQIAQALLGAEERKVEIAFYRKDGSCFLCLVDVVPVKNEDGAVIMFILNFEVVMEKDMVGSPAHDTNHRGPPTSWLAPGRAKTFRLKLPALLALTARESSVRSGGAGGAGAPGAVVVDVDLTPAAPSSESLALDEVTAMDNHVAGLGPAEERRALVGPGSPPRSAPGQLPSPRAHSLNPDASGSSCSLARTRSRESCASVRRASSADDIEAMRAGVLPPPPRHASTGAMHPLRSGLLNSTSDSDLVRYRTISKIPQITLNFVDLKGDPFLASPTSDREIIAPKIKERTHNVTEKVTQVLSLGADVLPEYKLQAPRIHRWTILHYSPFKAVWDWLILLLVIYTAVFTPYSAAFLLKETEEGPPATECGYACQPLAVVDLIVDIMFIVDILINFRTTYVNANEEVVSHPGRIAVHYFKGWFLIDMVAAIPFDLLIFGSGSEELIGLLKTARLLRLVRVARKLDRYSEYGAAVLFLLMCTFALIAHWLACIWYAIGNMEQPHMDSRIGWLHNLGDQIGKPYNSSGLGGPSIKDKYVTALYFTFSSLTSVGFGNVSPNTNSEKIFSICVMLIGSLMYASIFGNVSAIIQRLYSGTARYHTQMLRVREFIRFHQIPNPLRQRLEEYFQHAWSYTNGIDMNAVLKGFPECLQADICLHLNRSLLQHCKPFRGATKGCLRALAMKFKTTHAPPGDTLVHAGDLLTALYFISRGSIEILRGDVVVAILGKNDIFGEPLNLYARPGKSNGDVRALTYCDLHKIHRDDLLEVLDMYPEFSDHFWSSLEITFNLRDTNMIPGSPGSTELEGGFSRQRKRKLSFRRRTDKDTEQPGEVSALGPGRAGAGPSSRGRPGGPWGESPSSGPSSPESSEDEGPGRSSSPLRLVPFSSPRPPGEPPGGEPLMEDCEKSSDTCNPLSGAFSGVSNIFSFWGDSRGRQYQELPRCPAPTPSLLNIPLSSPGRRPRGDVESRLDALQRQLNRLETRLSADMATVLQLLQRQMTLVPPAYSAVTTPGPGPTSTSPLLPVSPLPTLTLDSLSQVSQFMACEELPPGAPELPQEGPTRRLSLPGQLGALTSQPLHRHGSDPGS
row,SMILES,"hERG current change (%, negative = inhibition) at 1uM [%]"
1,Cc1ccc(-c2csnn2)cc1,9.29
2,Cn1c(CO)cnc1SCc1ccc(F)cc1,14.8
3,Cc1ccc(-c2noc(Cn3nc(C(=O)O)c4ccccc4c3=O)n2)cc1,20.1
4,CCOc1ccc(S(=O)(=O)N2CCN(c3ccccn3)CC2)cc1,6.28
5,COc1ccc(OC)c(NC(=O)c2ccc(CN3CCc4ccccc4C3)cc2)c1,9.55
6,CCOc1ccccc1N1CCN(C(=O)c2c(CC)noc2C)CC1,10.3
7,COc1cc(OC)c(S(=O)(=O)N2CCN(C(=O)c3ccccc3F)CC2)cc1NC(C)=O,3.87
8,Cc1cccc(C)c1NC(=O)C/C(N)=N/O,2.58
9,COc1ccc(CCNC(=O)C/C(C)=N/NC(=O)COc2ccc(C)cc2Br)cc1OC,-15.1
10,CCCCn1c(N)c(N(CC(C)C)C(=O)C2CCN(S(=O)(=O)c3ccc(F)cc3)CC2)c(=O)[nH]c1=O,5.71
11,COc1cccc(NC(=S)N(CCCN2CCOCC2)C(C)c2cc3ccccc3o2)c1 (stereo not shown),10.6
12,OCCC1CN(Cc2cnc(-c3ccccc3)s2)CCN1Cc1ccccc1 (stereo not shown),1.93
13,c1ccc(-c2cn3c(n2)CCC3)cc1,6.71
14,Cc1ccc(NC(=S)NCc2ccc(F)cc2)cc1,6.2
15,COC(=O)c1ccccc1NC(=O)NCc1ccncc1,3.03
16,CN1CCN(C2Cc3ccccc3Sc3ccc(Cl)cc32)CC1.O=C([O-])/C=C\C(=O)[O-] (stereo not shown),5.69
17,COc1cccc(OCC(=O)NNC(=O)C(=O)N2CCCC2)c1,4.29
18,O=C(CCCN1C(=O)C2CC=CCC2C1=O)Nc1ccccc1Cl (stereo not shown),-2.68
19,Cc1ccc(S(=O)(=O)NC(=O)NN2CC3CCCC3C2)cc1 (stereo not shown),16.1
20,CN(CC(=O)N1CCc2ccccc21)S(=O)(=O)c1ccc(Cl)cc1,-0.885
21,CCOc1ccc(-c2cnc(NCc3cccc4ccccc34)n2CCOC)cc1.O=C(O)C(=O)O,6.64
22,CCCCCCCCCSc1n[nH]c(N)n1,2.01
23,CC1(C)CC(=O)C2=C(C1)Oc1ncn(CCCO)c(=N)c1C2c1ccccc1 (stereo not shown),-0.734

row,SMILES,"hERG current change (%, negative = inhibition) at 1uM [%]"
1,CCOC(=O)c1c(NC(=O)COC(=O)c2c(C)noc2C)sc2c1CCC2,-0.511
2,COc1ccc(-c2nnc(-c3ccc(OCC(C)C)cc3)o2)cc1,3.41
3,O=[N+]([O-])c1ccc(Nc2ccccn2)c([N+](=O)[O-])c1,16.2
4,O=Cc1cn(Cc2ccccc2[N+](=O)[O-])c2ccccc12,11.2
5,CCOc1ccc(-c2nnc(SCc3nnc(-c4ccccc4)o3)n2-c2ccccc2F)cc1,0.741
6,CC(C)C(c1nnnn1C1CCCC1)N1c2ccccc2CC1C (stereo not shown),1.7
7,Cn1cc(CN2CCN(Cc3ccccc3)C(CCO)C2)c(-c2ccccc2)n1 (stereo not shown),-3.01
8,O=C(Cc1ccc(Cl)cc1)Nc1cccc(S(=O)(=O)Nc2ccccc2F)c1,10.5
9,CCCC1(CCC)NC(=O)NC1=O,11.7
10,CCN(CC)c1ccc(/C=C/c2nc3ccccc3s2)cc1,11.7
11,Cc1c(NS(=O)(=O)c2ccc(N)cc2)c(=O)n(-c2ccccc2)n1C,17.4
12,CCCCNC(=O)Cc1c(O)c2ccccc2[nH]c1=O,7.7
13,C=Cc1ncc(OC)c2c1[nH]c1ccccc12,12
14,CCOCCCNC(=O)c1ccc2c(c1)ncn2-c1ccc(C)cc1C,0.866
15,COc1ccc(OCC(=O)N2CCc3ccccc3C2)cc1,10.2
16,O=c1[nH]nc(C(F)(F)F)c2nnn(Cc3ccccc3Cl)c12,3.37
17,CCOc1ccc(NC(=O)c2nc(SCC)ncc2Cl)cc1,16.7
18,CCOC(=O)C1CCCN(C/C(O)=C(\C#N)c2nc(-c3ccc(Cl)cc3)cs2)C1 (stereo not shown),-5.57
19,CCCOc1ccc(C(=O)CCC(=O)NNC(=O)c2cccs2)cc1,8.59
20,CCOc1ccc(NC(=O)c2cnccn2)cc1,11.9
21,O=[N+]([O-])c1ccc(C[n+]2cccc3c4ccccc4ccc32)cc1.[Br-],-18
22,CCc1nnc(NC(=O)c2ncc(Cl)c(Cl)c2Cl)s1,10.6
23,COc1cccc2cccc(/C=N/n3cnnc3)c12,-0.812

row,SMILES,"hERG current change (%, negative = inhibition) at 1uM [%]"
1,CCOC(=O)C1CCN(C(=O)c2cc(-c3ccncc3)nc3ccccc23)CC1,-30.5
2,O=C(/C=C/c1cccc([N+](=O)[O-])c1)Nc1ccc(Cl)cn1,8.73
3,O=C(Cn1c(O)c(N=NC(=O)c2ccncc2)c2ccccc21)Nc1ccccc1,-5.6
4,COc1ccc(NC(=O)c2cccc3c2C(=O)N(CC2CCCO2)C3)cc1OC (stereo not shown),-3.03
5,CC(=O)c1ccc(N2CCN(C(=O)c3ccc(Br)cc3)CC2)c(F)c1,-20.3
6,CN(c1ccccc1)S(=O)(=O)c1cccc(NC(=O)c2ccncc2)c1,0.144
7,CCOc1ccc(S(=O)(=O)NC(C)C)cc1C(N)=O,19.5
8,COc1cccc2cc(C(=O)NCc3ccc(Cl)cc3)c(=O)oc12,12.9
9,CCc1c2c(nc3ccc(OC(=O)N4CCC(N5CCCCC5)CC4)cc13)-c1cc3c(c(=O)n1C2)COC(=O)[C@]3(O)CC.Cl.O,14.7
10,CC(=O)OC1CC(C)N(C(=O)c2ccccc2)c2ccc(C)cc21 (stereo not shown),10.1
11,Cc1cccc[n+]1CC(=O)Nc1ccc([N+](=O)[O-])cc1.[Cl-],16.9
12,CCCCCCc1cc2cc(-c3nnc(-c4ccccc4)o3)c(=O)oc2cc1O,6.28
13,Cc1cc(C(=O)COC(=O)Cc2n[nH]c(=O)c3ccccc23)c(C)n1-c1cccc(C(F)(F)F)c1,2.72
14,Cc1ccc(S(=O)(=O)N2CC(C)C(=O)CC2C)cc1 (stereo not shown),13.9
15,O=C(COC(=O)c1cc([N+](=O)[O-])ccc1NCCO)c1ccccc1,1.96
16,O=C(NCCSc1ccccn1)c1ccc(Cl)cc1Cl,4.3
17,CC(NC(=O)c1cc2ccccc2o1)C(=O)O (stereo not shown),11.2
18,Cc1nonc1OCC(C)(COc1nonc1C)NC(=O)c1ccc(Cl)cc1,-6.2
19,O=c1c(C(c2ccccc2)c2c(O)nc3n(c2=O)CCS3)c(O)nc2n1CCS2,9.9
20,COc1ccc(/C=C/C(=O)Oc2ccc(C)c(C)c2)cc1OC,-1.74
21,Cc1nnc(N)s1,9.41
22,Cc1cc(C)nc(SCC(=O)NN=C2CCCC2)n1,10.2
23,CN(C)C(CNC(=O)c1ccc(NC(=O)CC#N)cc1)c1ccccc1 (stereo not shown),4.16

row,SMILES,"hERG current change (%, negative = inhibition) at 1uM [%]"
1,COc1ccc(N2C(=O)CC(C)(C)CC2=O)cc1OC,11.1
2,O=C(NCc1ccco1)C1CCN(S(=O)(=O)c2ccc(-n3cnnn3)cc2)CC1,-62.1
3,CCN(CC(=O)Nc1ccc(NC(C)=O)cc1)C(=O)Cc1cccc2ccccc12,0.896
4,Cc1ccc(OCCC(=O)N(CC(=O)Nc2ccccc2C(F)(F)F)Cc2ccco2)cc1,10.5
5,O=C(C1=C[C@@H](C2CC2)C[C@@H](OCc2ccc(CO)cc2)O1)N1CCN(Cc2ccc3c(c2)OCO3)CC1,-9.63
6,O=S(=O)(c1ccc(S(=O)(=O)N2CCC(O)CC2)cc1)N1CCCC1,19
7,CSc1nc2ccc(NC(=O)c3cc4ccccc4o3)cc2s1,17.2
8,COc1ccc(CN2C(=O)/C(=C/c3ccncc3)SC2=S)cc1,13.7
9,Fc1ccc(COc2ccc(C(=S)N3CCCC3)cc2)cc1,13
10,Cc1nn(C)cc1CN(C)C(=O)CCc1nnc(CCC2CCCCC2)o1,6.75
11,N#CC[C@H](Cc1ccccc1)N1CC[C@@H](O)CCC1=O,2.82
12,COc1ccc(OCCSc2nc(C)nc3ccccc23)cc1,26.2
13,Cc1cc(C(=O)CSc2nnc(N)s2)c(C)n1Cc1cccs1,7.32
14,COc1ccc(CCNC(=O)C2=COCCO2)cc1,20.3
15,Cc1cc(NC(CC(C)C)C(=O)O)nc(Cc2ccccc2)n1 (stereo not shown),12.6
16,COc1cccc(C2C(C#N)=C(N)OC(C(C)(C)C)=C2C#N)c1 (stereo not shown),-2.93
17,COc1ccc(C2C(C(=O)N3CCOCC3)CCC(=O)N2c2ccc(OC)cc2)cc1 (stereo not shown),17.2
18,Cc1ccc(/C(O)=C2\C(=O)C(=O)N(c3cc(C)on3)C2c2cccc(Br)c2)cc1 (stereo not shown),12.2
19,CCOCc1nnc(NC(=O)CSCc2ccccc2)s1,4.56
20,Cn1c(=O)c2c(nc(N3CCCC3)n2C)n(C)c1=O,12.6
21,CN1CCN(c2ccccc2NC(=O)c2cc(Br)ccc2Cl)CC1,-53.1
22,COC(=O)C1=C(C)N(CCc2ccccc2)C(=O)C1(NS(=O)(=O)c1ccc(NC(C)=O)cc1)C(F)(F)F (stereo not shown),-2.49
